The values that follow come from the RNAGym collection of RNA variant scans (doi:10.1093/nar/gkz1192).

Sequences and labels used below:
B1: CPEB3 Ribozyme (parent)
chain: UAACAGGGGGCCACAGCAGAAGCGUUCACGUCGCAGCCCCUGUCAGAUUCUGGUGAAUCUGCGAAUUCUGCUGUAUAUCUC

The source gives no read counts; variants with many changes may rest on few reads.

The series covers variants of B1. Kind of series: self-cleavage, relative activity (ratio to wild type); higher = more cleavage; in vitro, sequencing. An outline of the steps:
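Relative activity was defined as the cleaved/total read fraction for a variant divided by the same fraction for the unmutated ribozyme. CPEB3 self-cleaving ribozyme libraries were made by rounds of error-prone PCR, barcoded, and transcribed in vitro with T7 RNA polymerase for 5 hours at 37°C, and cleavage ran through transcription plus a 15 min DNase I step before EDTA. Illumina sequencing of template-switched reverse transcripts gave the reads, and DNA sequencing mapped the barcodes. Averages come from three batches, using variants with at least 5 reads.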
Regarding UAACAGGGGGCCACAGGCGAAGCGUUUACGCCGCAGCACCUGCCAGAUUCAGGUGAAUCUGCGAAUUCUGCUGUAUAUCUC, the self-cleavage is 0.04.
With UAACAGGGGGCCACAGAGGAAGCGUUCACGACGCAGCCCCUGUCAGAUUCUGGUGAACCUGCGGAUUCUGCUGCAUAUCUC the figure was 0.12; with UAACAGGGGGCCACAUCAGAAGCGUUCACGUCGCAGCCCCUGACAGAUUCUGGUGAAUCUGCGAAUUCUGCCGUAUAUCUC, 0.5.
As to UAACAGGGGGCCACAGGAGAGGCGUUCAGGUCGCAGCCCCUGUCAGAUUCUGGUGAAUCUGCGAAUUCUGCUGUAUGUCUC, the self-cleavage worked out at 0.18.
Consider UAACAGGGGGCCACAGAAGAAGCGUUCACGUCGCGGCCCCUGUCAGAUUCUGGUGAAUCUGCGAACUCUGCUGUAUAUCUC, for which the self-cleavage amounted to 0.25.
For UAACAGGGGGCCACAUCAGAAGCGUUCACGUCGCAGCCCCAGUCAGGUUCUGGUGAACCUGCGAAUUCUGCUGUAUAUCCC, the self-cleavage was 0.15.
With UAACAGGGGGCCACAGAGGAAGCGUUCACGUCGCAGCCCCUGUCAGAUUCCGGGGAAUCUGCGUAUUCUGCGGUAUAUCUC the figure was 0.13; with UAACAGGGGGCCACAUCAGAAGCGUUCACGUCGCAGCCCCCGUCAGAUUCUGGUGAAUCUGCGAAUUCUGCCGUAUAUCUC, 0.51; with UAACAGGGGGCCACAGGAGAGGCGUUCACGUCGCAGCCCCUGUCAGAUUCUGGCGAAUCCGCGAAUUCUGCUGUAUAUCUC, 0.06.
As to UAACAGGGGGCCACAUCAGAAGCGUCCACGUCGCAGCCCCCGUCAGUUUCUGGUGAAUCUGCGAAUUCUGCUGUAUAUCGC, the self-cleavage is 0.06.
Take UAACAGGGGGCCACAUCAGAAGCGUUCACGUCGCAGCCCCUGUCAGAUUCUGGUGAAUCUGCGAAUUCUGCCGUAUAUCUU: the self-cleavage worked out at 0.76.
For the variant UAACAGGGGGCCACAGAAGAAGCGUUCACGCCGCAGCCCCUGUCAGAUUCUGGUGAAUCUGCGAAUUCGGCUGUAUAUCUC, the self-cleavage is 0.34.
With UAACAGGGGGCCACAGAAGAAGCGUUCACGUCGCGGCCCCUGUCAGAUUCUGGUGAAUAUACGAAUUCUGCUGUAUAUCUC the figure was 0.18.
With UAACAGGGGGCCACAUCAGAAGCGCUCACGCCGCAGCCCCUGUCAGAUUCUGGUGAAUCUGCGAAUUCUGCUGUAUAUCUC the figure was 0.08.
With UAACAGGGGGCCACAUCAGAAGCGUCCACGCUGCGGCCCCUGUAAGAUUCUGGUGAAUCUGCGAAUUCUGCUGUAUGUCUC the figure was 0.14; with UAACAGGGGGCCACAGGGGAAGCGUUCACGUCGCAGCCCCUGUCUGAUUCUGGUGAAUCUGCGAAUUCCGCCGCAUAUCUC, 0.16; with UAACAGGGGGCCACAUCAGAAGCGUUCACGUCGCAGCCCCUGGCAGAUUCCGGUGAAUCUGCGAAUUCUGCUGUAUAUCUC, 0.16.
For the variant UAACAGGGGGCCACAGGAGAGGCGUUCACGUCGCAGCCCCAGUCAGAUUCAGGUGAAUCUGCGAAUUCAGCUGCAUAUCUC, the self-cleavage is 0.07.
For the variant UAACAGGGGGCCACAUCAGAAGCGUCCACGUCGCUGCCCCUGUCAGAUUCAGGUGAAUCUGCGAAUUCUGCUGUAUAUCUC, the self-cleavage was found to be 0.19.
With UAACAGGGGGCCACAGAAGAGGCAUUCACGUCGCAGCCCCUGUCGGAUUCUGGUGAAUCCGCGAAUUCCGCUGUAUAUCAC, the self-cleavage is 0.03.
UAACAGGGGGCCACAGGUGAAGGGUUCACGUCGCAGCCCCUGUCAGAUUCCGGUGAAUCUGCGAAUUCUGCUGUAUAUCUC: the self-cleavage is 0.04.
In the case of UAACAGGGGGCCACAUCAGAAGCGUUCACGUCGCAGCCCCCGUCAGAUUCUGGCGAAUCUGCGAAUUCUGCUGUAUAUCUC, the self-cleavage was 0.35.
With UAACAGGGGGCCACAGAUGAAGCGUCCACGUCGCAGCCCCUGUCAGAUUCUGGUGGAACUGCGAAUUCUGCUGUAUAUCUC the figure was 0.06; with UAACAGGGGGCCACAGGAGAGGCGUUCACGUCGCUGCCCCUGUCAGAUUCUGGUGAAUCUGCGAAUUCUGCUGUAUAUCUC, 0.35; with UAACAGGGGGCCACAGAAGAAGCGUUCGCGUCGCAGCCCCAGUCAGAUUCUGGUGAAUCUGCGAAUUCUGCUGCACAUCUC, 0.21.
With UAACAGGGGGCCACAGAAGAAGCGUUCACGUCGCAGCCCCUGUCAGAUCCUGGUGAAUCUGCGAACUCUGCUGUAUAUCUC the figure was 0.16; with UAACAGGGGGCCACAUCAGAAGCGUUCACGUCGCAGCCCCUGUCAGAUUCCGGUGAAUCUGCGUAUUCAGCUAUAUACCUC, 0.09.
For UAACAGGGGGCCACAGAAGAAGCGUUCACGUCGCAGCCCCUGCCAGGUCCUGGCGAAUCUGCGAAUUCUGCUGUAUAUCUC, the self-cleavage stood at 0.14.
Turning to UAACAGGGGGCCACAGAAGGAGCGUUCACGCCGCAGCCCCUGUCAGAUUCUGGUGAAUCUGCGAAUUCUGCUGUAUAUCUC, the self-cleavage was determined as 0.35.
Consider UAACAGGGGGCCACAGAAGAAGCGUUCACGUCGCAGCCCCCGUCCGAUUCUGGUGAAUCUGCGUAUUCUGCUGUAUAUCUC, for which the self-cleavage was determined as 0.07.
As for UAACAGGGGGCCACAGAGGAAGCGUUCACGUCGCAGCCCCCGUCAGAUUCUGGUGAAUCUGCGAAUUCUGCAGUAUAUCUC, the self-cleavage was 0.09.
In the case of UAACAGGGGGCCACAGAAGAGGCGUUCACGUCGCGGCCCCCGUCAGACUCUGGUGAAUCUGCGAAUUCUGCAGUAUAUCUC, the self-cleavage is 0.08.
Consider UAACAGGGGGCCACAUCAGAAGCGUUCACGUCGCAGCCCCUGUCAGAUUCUGGUGAAUCUGCGAACUCUGCUGGAUAUCUC, for which the self-cleavage amounted to 0.13.
With UAACAGGGGGCCACAUCAGAAGCGCUCACGUCGCAGCCCCGGUCAGAUUCUGGUGAGUCUGCGAAUUCUGCUCUAUAUCUC the figure was 0.09; with UAACAGGGGGCCACAGAAGAAGCGUUCACGUCGCGGCCCCUGUCAGAUUCUGGAGAAUCUGCGAAUUCUGCUGUAUAUCUC, 0.7; with UAACAGGGGGCCACAUCAGAAGCGUUCACGUCGCAGCCCCUGACGGAAACUGGUGAAUCUGCGAAUUCUGCUGUAUAUCUC, 0.12.
With UAACAGGGGGCCACAGAAGAAGCGUCCACGUCGCAGACCCUGUCAGAUUCUGGUGAAUCUGCGAAUUCUGCUGUAUAUCUC the figure was 0.52; with UAACAGGGGGCCACAGAAGAAGCGUUCACGUCGCAGCUCCUGUCAGAUUCUGGUGAAUCUGCAAAUUCUGCUGUAUAUCUC, 0.05; with UAACAGGGGGCCACAGGAGAGGCGUUCAGGUCGCAGCCCCUGUCAGAUUCUGGUGAAUCUGCGAAUUCUGCUGUAUAUCUC, 0.17.
For UAACAGGGGGCCACAGAAGAAGCGUUCACGUCGCAGCCCCUGCCAGAUCCUGGUGAGUCUGCGAAUUCUGCUGUACAUCUC, the self-cleavage came out at 0.06.
Take UAACAGGGGGCCACAGAAGAAGCGUUCACGUCGCAGCCCCUGUCAGGUUCUGGAGAAUCUGCGAACUCUGCUGUAUAUCUU: the self-cleavage turned out to be 0.07.
With UAACAGGGGGCCACAGGUGAAGGGUUCACGUCGCAGCCCCUGUCAGAUUCUGGUGAAUCUGCGAAUUCUGCUGUAUAUCUC the figure was 0.09; with UAACAGGGGGCCACAGAAGAAGCGUACACGUCGCAGCCCUUGUCAGUUUCUGGUGGAUCUGCGAAUUCUGCUGUGUAUCUC, 0.09; with UAACAGGGGGCCACAGAAGAAGCGUUCACGUCGCAGCCCCUGUCAGGUUCUGGAGAAUCUGCGAACUCUCCUGUAUAUCUC, 0.07.
Next, UAACAGGGGGCCACAGAAGAAGCGUUCACGUCGCAGCCCCUGUCAGAUACUGGUGAGUCUGCGAAUUCUGCUGUAUAACUC: 0.25; UAACAGGGGGCCACAGGAGAGGCGUUCACGUCGCAGCCCCUGUCAGAUUCUGGUGAAUCAGCGAAUUCUGCUGUAUAUCUC: 0.07.
On to UAACAGGGGGCCACAGAGGAAGCGUUCAAGUCGCAGCCCCUGUCAGAUUCAGGGGAAUCUGCGUAUUCUGCUGUAUAUCUC, for which the self-cleavage was 0.11.
Take UAACAGGGGGCCACAGGAGUAGCGUUCACGUCGCAGCCUCUGUCAGAUUCUGGUGAAUCUGCGAAUUCUGCUGUAUAUCUC: the self-cleavage was 0.35.
Next, UAACAGGGGGCCACAGAAGAAGCGUUCACGUCGCAGCCCCUGUCAGAUUCUGGUGAAUCUGCGGAUUCUGGUAUACAUCUC: 0.12; UAACAGGGGGCCACAUCAGAAGCGUUCACGUCGCAGCCCCUGUCAGAUUCUGGUGAAUCUGCGAAUUCUGCCGUAUGUCUC: 0.67; UAACAGGGGGCCACAGAAGAAGCGUUCACGUCGCAGCCCCUGUCAGGUUCUGGAGAAUCUGCGAACUCUGCUGUAUAUCUC: 0.1.
Take UAACAGGGGGCCACAUCAGAAGCGUACACGUCGCAGCCCCUGUCAGAUUCUGGUGAAUAUGCGGAUUCUGCUGAAUAUCUC: the self-cleavage stood at 0.08.
With UAACAGGGGGCCACAUCAGAAGCGUUCACGUCGCAGCCCCUGUCAGACUCUGGUGAAUUUGCGAAUUCUGCUGUAUAUCUC the figure was 0.22; with UAACAGGGGGCCACAGAAGAAGCGUUAGCGUCGCGGCCCCAGUCAGAUUCUGGUGGAUCUGCGAUUUCUGCUGUAUAUCUC, 0.04.
Next, UAACAGGGGGCCACAGAAGAAGCUCUCACGUCGCAGCCCCCGUCAGAUUCCGGAGAAUCUGCGAAUUCUGCUGUAUAUCUC: 0.43; UAACAGGGGGCCACAGAAGAAGCGUUCACGUCGCGGCCCCUGUCAGAUUCUGGUGUAUCUGCGAAUUCUGCUGUAUAUCUC: 0.17.
With UAACAGGGGGCCACAGAGGAAGCGUUCACGCCGCAGCCCCUGUCAGAUUCUGGUGAAUCUGCGAAUUCUGCUGUAUAUCAC, the self-cleavage came out at 0.34.
As for UAACAGGGGGCCACAGAAGAAGCGUUCACGUCGAAGCCCCUGUCAGAUUCUGGCGAAUCUGCGAAUUCUGCUGUAUAUCUC, the self-cleavage came to 0.06.
As for UAACAGGGGGCCACAGAAGAAGCGUUCACGUCGCAGCCCCUGUCAGACUCUGGUGAAUCUGCGUAUUCUGCUGUAUAUCCC, the self-cleavage was determined as 0.14.
Consider UAACAGGGGGCCACAUCAGAAGCGUUCACGUCGCAGCCCCAGUCAGAUUCUGGUGAAUCUGUGAAUUCUGCUGUAUAUCUC, for which the self-cleavage is 0.1.
On to UAACAGGGGGCCACAGAAGAAGCGUUCACGUCGCAGCCCCUAUCAGAUUCUGGUGAAUCUGCGAAUUCUGCUGUAUAUCCC, for which the self-cleavage is 0.21.
With UAACAGGGGGCCACAUCAGAAGCGUACACGUCGCAGCCCCUGACAGAUUCUGGUGAAUCUGCGUGUUCUGCUGUAUAUCUC the figure was 0.05; with UAACAGGGGGCCACAUCAGAAGCGUUCACGUCGCAGCCCCUGGCAGAUUCCGGUGAAUCUGCGAAUUCUGCCGUAUACCUC, 0.18.
Next, UAACAGGGGGCCACAUCAGAAGCGUUCACGCCGCAGCCCCCGUCGGAUUCUGGAGAAACUGCGAAUUCUGCCGUAUAUCUC: 0.05; UAACAGGGGGCCACAGAAGAAGCGCACACGUCGCAGCCUCUGCCAGAUUCUGGUGAAUCUGCGAAUUCUGCCGUACAUCUC: 0.08; UAACAGGGGGCCACAGAAGGAGCGUUCACGUCGCAGCCCCUGUCAGAUUCUGGUGAAUCUGCGAAUUCUGCCGUAUAUCUC: 0.19.
Next, UAACAGGGGGCCACAGAAGAAGCGUUCACGUCGCAGCCCCUGUCAGAUUCUGGUGAAACUGCGAAUUCUGCUGAAUAUCUC: 0.11; UAACAGGGGGCCACAUCAGAAGCGUACACGUCGCGGCCCCUGUCAGAUUCUGGUGAAACUGCAAAUUCUGCUGAAUAUCUC: 0.27.
